Measured values reported in PubChem BioAssay AID504332 (National Center for Advancing Translational Sciences (NCATS), 2011).
The campaign covered roughly 350,000 compounds. About 31,000 (8.9%) were called active. Inconclusive means that the source gave no clear call. Such entries were picked first, then a sample of the others. Calls come from the whole dose curve; as a rule, active = well fitted inhibition curve with a large enough effect; inconclusive = small, poorly fitted or top-dose-only effect; inactive = no such curve, though single readings can be large or run the other way. Where the call is inconclusive, the potency comes from a doubtful curve fit.
% is set by controls: 0 for no effect and ±100 for the full control effect; potency is the fitted concentration of half-maximal effect; tags give direction and shape of the fitted curve.
Note: nearly all actives have a fitted effect of over 75% in size.

What follows are molecules tested against Histone-lysine N-methyltransferase EHMT2 (Homo sapiens) (UniProt Q96KQ7) (assay: qHTS Assay for Inhibitors of Histone Lysine Methyltransferase G9a). Conditions: G9a H3K9 monomethylation, AlphaScreen, 2 h; activity, negative = inhibition: at 59 µM (top of the series) unless noted.
Chain of UniProt Q96KQ7 (Q96KQ7 whole entry, looked up): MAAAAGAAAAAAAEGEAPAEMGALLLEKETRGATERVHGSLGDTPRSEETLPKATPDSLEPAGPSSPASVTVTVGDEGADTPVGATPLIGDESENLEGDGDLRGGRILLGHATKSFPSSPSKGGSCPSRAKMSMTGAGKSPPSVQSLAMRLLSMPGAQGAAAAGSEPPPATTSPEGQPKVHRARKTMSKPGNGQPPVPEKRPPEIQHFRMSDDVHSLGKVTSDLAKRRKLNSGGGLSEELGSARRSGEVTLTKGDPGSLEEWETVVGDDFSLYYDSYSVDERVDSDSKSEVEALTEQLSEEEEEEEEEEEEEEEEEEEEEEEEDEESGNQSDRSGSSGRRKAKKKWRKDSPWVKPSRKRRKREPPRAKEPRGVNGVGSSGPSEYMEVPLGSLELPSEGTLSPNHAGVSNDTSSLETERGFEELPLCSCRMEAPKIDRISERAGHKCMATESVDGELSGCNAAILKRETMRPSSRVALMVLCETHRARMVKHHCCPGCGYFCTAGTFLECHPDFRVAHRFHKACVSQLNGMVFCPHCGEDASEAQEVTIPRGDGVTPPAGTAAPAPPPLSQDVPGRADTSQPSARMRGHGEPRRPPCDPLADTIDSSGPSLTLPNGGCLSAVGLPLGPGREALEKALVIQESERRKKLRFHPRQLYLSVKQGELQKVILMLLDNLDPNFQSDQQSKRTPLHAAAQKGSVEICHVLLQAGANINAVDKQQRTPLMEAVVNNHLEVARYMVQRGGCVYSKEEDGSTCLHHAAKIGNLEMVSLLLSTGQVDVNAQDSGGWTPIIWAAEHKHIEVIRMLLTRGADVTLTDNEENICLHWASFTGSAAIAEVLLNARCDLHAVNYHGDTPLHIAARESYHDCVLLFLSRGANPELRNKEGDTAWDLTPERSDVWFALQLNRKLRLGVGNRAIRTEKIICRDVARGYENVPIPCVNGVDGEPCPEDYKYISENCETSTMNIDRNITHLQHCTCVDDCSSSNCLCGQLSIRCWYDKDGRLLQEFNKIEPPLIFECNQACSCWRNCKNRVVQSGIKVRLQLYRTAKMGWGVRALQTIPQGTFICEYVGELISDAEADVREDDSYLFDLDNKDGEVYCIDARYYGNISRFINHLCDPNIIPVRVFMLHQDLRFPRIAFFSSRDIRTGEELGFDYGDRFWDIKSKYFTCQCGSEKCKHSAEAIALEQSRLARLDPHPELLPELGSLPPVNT
Summary of the method: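 Step 1: enzyme (final 20 nM) with compound, 15 min RT. Step 2: substrate peptide 500 nM and SAM 20 uM, 2 h RT. Step 3: anti-H3K9me1 antibody and AlphaScreen beads, 10 min, then plate read.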
For Nn1c(SCC(=O)Nc2ccccc2)nnc1-c1cccnc1, the activity, negative = inhibition was inconclusive: -58.1% [inhibitor]. For COc1ccc(OC)c(S(=O)(=O)N2CCN(c3ccc(F)cc3)CC2)c1, the “activity, negative = inhibition” value was inactive: 1.17%. O=C(COc1ccccc1)NC(Cc1c[nH]c2ccccc12)C(=O)O (configuration not stated) was tested, and the Potency was active: 35.5 µM. With C(=Nc1ccc(N2CCOCC2)cc1)c1c[nH]c2ccccc12 the Potency was inconclusive: 14.1 µM [inhibitor, partial curve, poor fit]. For CCOC(=O)c1c(C)nn(-c2ccc(NC(=O)c3c(C)noc3C)cc2)c1C, the Potency was active: 44.7 µM. For NC(=O)COc1ccc(C(=O)/C=C2/C(=O)Nc3ccccc32)cc1, the Potency was active: 79.4 µM. O=C(Nc1nnc(SCC(=O)N2CCCC2)s1)C1CC(=O)N(c2ccccc2)C1 (configuration not stated) was tested, and the Potency was inconclusive: 44.7 µM [inhibitor, single point]. Cc1cccc(C)c1NC(=O)CCc1nnc2ccc(N3CCCC3)nn12 was tested, and the “activity, negative = inhibition” value was inactive: -20.1% [at 102 µM]. For CCN(CC)c1ccc(S(=O)(=O)N2CCOCC2)cc1NC(=O)COC(=O)/C=C/c1ccc(C)o1, the Potency was active: 44.7 µM. In the case of O=C(Nc1ccc(F)c([N+](=O)[O-])c1)C(=O)c1c(O)[nH]c2ccccc12, the Potency is reported as active: 28.2 µM. Nc1ccc(SC(F)(F)F)cc1 was tested, and the Potency was active: 50.1 µM. With S=c1[nH]nc(-c2ccncc2)n1/N=C/c1ccccc1 the Potency was active: 1.26 µM. For CC1CCN(C(=O)Nc2cccc(NC(=O)N3CCC(C)CC3)c2)CC1, the Potency was inconclusive: 22.4 µM [inhibitor, partial curve]. For CCc1nn(CC(=O)NCCCN2CCOCC2)c(=O)c2cc3cc(F)ccc3n12, the Potency was active: 50.1 µM. For CC(=O)N1CCC2(CCCN(C(=O)Nc3cccc(C#N)c3)C2)CC1, the activity, negative = inhibition was inactive: -0.959% [at 12.7 µM]. For CCCOc1ccc(C(=O)N(Cc2cccs2)C2CCS(=O)(=O)C2)cc1 (configuration not stated), the Potency was inconclusive: 0.794 µM [inhibitor, partial curve, poor fit]. COc1ccccc1NC(=O)C1=C(C)NC2=C(C(=O)CC(c3ccc(OC)c(OC)c3)C2)C1c1coc2ccccc2c1=O (configuration not stated) was tested, and the Potency was active: 44.7 µM. CC(=O)N1c2ccc(S(=O)(=O)N3CCCCC3)cc2CC1C(=O)NCc1cccc(Cl)c1 (configuration not stated) was tested, and the Potency was inconclusive: 89.1 µM [inhibitor, single point]. For CN(Cc1cccc(F)c1)C(=O)CSc1nnnn1C1CC1, the Potency was inconclusive: 50.1 µM [inhibitor, partial curve, poor fit]. For CCN(CC)CCOC(=O)c1ccc(NC(=O)CNC(=O)c2ccccc2)cc1, the Potency was inconclusive: 3.55 µM [inhibitor, full curve]. In the case of CCN(CC)c1ccc(C(=O)N2CCC(c3ccncc3)CC2)cc1, the Potency is reported as inconclusive: 5.62 µM [inhibitor, partial curve]. For COc1ccc2cc(CN(C(=O)Nc3ccccc3)C3CCCC3)c(=O)[nH]c2c1, the “activity, negative = inhibition” value was inactive: -23.1% [at 102 µM]. COc1ccc(OC)c(-c2csc(NC(=O)Cc3ccccc3F)n2)c1 was tested, and the Potency was inconclusive: 50.1 µM [inhibitor, partial curve, poor fit]. In the case of CCOc1ccc(/C=N/n2cc(-c3ccccc3)[nH]c2=S)cc1, the Potency is reported as inconclusive: 8.91 µM [inhibitor, full curve]. For Cn1cc(NC(=O)c2cc(NC(=O)c3cc(NC=O)cn3C)cn2C)cc1C(=O)NCCC(=N)N, the Potency was inconclusive: 1.78 µM [inhibitor, partial curve, poor fit]. COc1ccccc1-n1c(CNC(=O)c2ccc(S(=O)(=O)N3CCOCC3)cc2)n[nH]c1=S was tested, and the Potency was active: 8.91 µM. In the case of O=C(Nc1ccc(N2CCCC2)cc1)c1cccc(Cl)c1Cl, the Potency is reported as inconclusive: 79.4 µM [inhibitor, partial curve, poor fit]. In the case of CCCCn1c(N)c(N(CC(C)C)C(=O)c2cnc(C)cn2)c(=O)[nH]c1=O, the “activity, negative = inhibition” value is reported as inactive: -29.2% [at 102 µM]. For N#Cc1c(-c2ccccc2)nc(SCC(=O)N(c2ccccc2)c2ccccc2)[nH]c1=O, the Potency was inconclusive: 17.8 µM [inhibitor, single point]. With CSc1nnc2c(n1)c(C)nn2-c1ccc(C)cc1 the Potency was inconclusive: 12.6 µM [inhibitor, partial curve]. For O=S(=O)(c1ccc(Cl)c(Cl)c1)c1snnc1-c1ccccc1, the Potency was inconclusive: 89.1 µM [inhibitor, single point]. With C=CCOc1c(Br)cc(CNc2ccc(NC(=O)C(C)C)cc2)cc1OCC the Potency was inconclusive: 31.6 µM [inhibitor, single point]. In the case of Cc1cc(=O)oc2cc(NC(=O)CN3C(=O)NC(C)(c4ccccc4)C3=O)ccc12 (configuration not stated), the Potency is reported as inconclusive: 10 µM [inhibitor, partial curve, poor fit]. With CC(C)c1ccc(NC(=O)CN2C(=O)c3cccc4cccc2c34)cc1 the “activity, negative = inhibition” value was inactive: -0.0418%. For CCCN(C(=O)Cn1c(=O)oc2cc(Cl)ccc21)c1ccc(C(C)C)cc1, the Potency was inconclusive: 11.2 µM [inhibitor, partial curve, poor fit]. With Cc1ccc2occ(C3N[C@H](C(=O)O)CS3)c(=O)c2c1 (some centres not stated) the Potency was active: 31.6 µM. For O=C(CCn1cnc(-c2ccccc2)c1-c1ccccc1)N/N=C/c1ccccc1O, the Potency was active: 44.7 µM. With Cc1ccc(C(=O)Nc2ccc3c(c2)OCO3)cc1S(=O)(=O)N1CCCCC1 the Potency was inconclusive: 17.8 µM [inhibitor, partial curve, poor fit]. CCOC1=C/C(=C/c2c(N)n3nc(CC(=O)N4CCCC4)sc3nc2=O)C=CC1=O was tested, and the Potency was active: 79.4 µM. With CCOC(=O)c1c(C)[nH]c(C)c1C(=O)COC(=O)c1sccc1C the activity, negative = inhibition was inactive: 11.1% [at 12.7 µM]. For Cc1cc(N(C)C)ccc1N=Nc1ccc2ncccc2c1, the activity, negative = inhibition was inactive: -46.7% [at 2.33 µM]. For O=C(CSc1ccccc1)Nc1ccc2c(c1)OCCO2, the Potency was active: 79.4 µM. With COc1cccc(Cn2c(=O)c(-c3ccccc3)nc3cnc(N4CCNCC4)nc32)c1 the activity, negative = inhibition was inactive: 2.19% [at 0.501 µM]. For COc1ccc(NCc2nnc(SCC(=O)NCc3ccccc3)n2-c2ccccc2OC)cc1, the Potency was inconclusive: 20 µM [inhibitor, single point]. With Cc1ccc(C)c(CN2C(=O)c3ccccc3S(=O)(=O)c3ccc(C(=O)N4CCN(C)CC4)cc32)c1 the “activity, negative = inhibition” value was inactive: 1.6%. With Cc1cc(Nc2cc(Cl)ccc2C)n2nc(Cc3ccccc3)nc2n1 the “activity, negative = inhibition” value was inactive: 1.55%. With CC(=O)Nc1nonc1-c1nc2ccccc2n1Cc1ccccc1 the activity, negative = inhibition was inconclusive: -54% [inhibitor] [at 12.7 µM]. In the case of CSC1=N/C(=C\c2ccccc2C)C(=O)S1, the Potency is reported as inconclusive: 70.8 µM [inhibitor, single point]. For Cc1ccccc1C(=O)NNC(=S)NC(=O)c1ccc(Cl)cc1Cl, the Potency was inconclusive: 14.1 µM [inhibitor, partial curve, poor fit]. CN(C)c1ccc(CNc2nc(-c3ccccc3)nn2S(C)(=O)=O)cc1 was tested, and the Potency was active: 28.2 µM. For CC(=O)c1cccc(OCC(O)CN2CCN(C(=O)c3ccco3)CC2)c1 (configuration not stated), the Potency was inconclusive: 25.1 µM [inhibitor, single point]. With Cc1cc(C(=O)CSc2ncccn2)c(C)n1-c1cccc(F)c1 the Potency was inconclusive: 39.8 µM [inhibitor, single point]. In the case of COc1ccc(CN/C=C2\CCCCC2=O)cc1, the Potency is reported as inconclusive: 35.5 µM [inhibitor, partial curve, poor fit]. For COc1cccc(-c2cc(C(F)(F)F)c(C#N)c(=O)[nH]2)c1, the “activity, negative = inhibition” value was inactive: 3.91% [at 102 µM]. With CCOC(=O)C1CCN(Cc2ccc(OCc3ccccc3)c(OC)c2)CC1 the Potency was active: 50.1 µM. For Clc1ccc(CN2CCCCCC2)cc1, the Potency was active: 12.6 µM. For COc1cccc(/C=N/NC(=S)NCCc2ccccc2)c1, the “activity, negative = inhibition” value was inactive: 2.24% [at 102 µM]. COC(=O)c1ccccc1NC(=O)CSc1nnc(CNS(=O)(=O)c2ccc(C)cc2)n1C was tested, and the activity, negative = inhibition was inactive: -40.2% [at 12.7 µM]. With CC(C)(C)NCC(O)COc1ccc(NC(=O)NC2CCCCC2)cc1 (configuration not stated) the activity, negative = inhibition was inactive: -37% [at 12.7 µM]. With Cc1ccc(CCNC(=O)c2cc3sccc3n2Cc2ccc(Cl)cc2)cc1 the “activity, negative = inhibition” value was inactive: -31.5%. O=C(NC1CCCc2ccccc21)C1CCC(CNc2c(N3CCOCC3)c(=O)c2=O)CC1 (configuration not stated) was tested, and the “activity, negative = inhibition” value was inactive: -7.72% [at 102 µM]. In the case of CCCn1c(SCc2cc(=O)oc3ccc4ccccc4c23)n[nH]c1=O, the Potency is reported as inconclusive: 89.1 µM [inhibitor, single point]. With CCOC(=O)C1=C(CN2CCN(c3cc(C)ccc3C)CC2)NC(=O)NC1c1ccccc1 (configuration not stated) the Potency was inconclusive: 10 µM [inhibitor, partial curve, poor fit]. With Fc1ccc(N2CCN(Cc3cnc(Cl)s3)CC2)cc1 the “activity, negative = inhibition” value was inactive: 1.51% [at 102 µM]. Cc1ccc2c(c1)c1c(c(=O)n(-c3ccccc3)c(=O)n1CC(=O)NCCC1=CCCCC1)n2C was tested, and the “activity, negative = inhibition” value was inactive: -4.89%. For O=C(COc1coc(CN2CCc3ccccc3C2)cc1=O)Nc1cccc([N+](=O)[O-])c1, the Potency was inconclusive: 14.1 µM [inhibitor, partial curve, poor fit]. For CC1CN(C(=O)CCC(=O)NCc2cccs2)c2cc(Cl)ccc2O1 (configuration not stated), the “activity, negative = inhibition” value was inactive: -8.21%. For CCN(CC)C(=O)c1cccnc1, the activity, negative = inhibition was inactive: 2.61% [at 12.7 µM]. With CS(=O)(=O)c1ccc2nc(NC(=O)c3ccco3)sc2c1 the Potency was inconclusive: 89.1 µM [inhibitor, single point]. In the case of COc1ccc(NS(=O)(=O)NC(=O)c2c[nH]c3ccccc23)cc1, the Potency is reported as inconclusive: 89.1 µM [inhibitor, single point]. O=C(CCC(=O)NNC(=O)COc1ccccc1)NCc1ccccc1 was tested, and the Potency was inconclusive: 89.1 µM [inhibitor, single point]. In the case of Nc1c(Cl)ncnc1NCc1ccccc1, the Potency is reported as inconclusive: 89.1 µM [inhibitor, single point].
